Reference: PubChem BioAssay AID463173 (ICCB-Longwood Screening Facility, Harvard Medical School, 2010)
About 1,700 (3.3%) of roughly 52,000 compounds were called active. Rule as the data show it: active = survival mostly below about 52% (no sharp cut-off); inactive = mostly above about 56%. This is one part of the list.

The compounds below were run on Wild type (assay: growth inhibition of S. aureus wild type versus tarO mutant, primary screen, teichoic acid synthesis inhibitors, RN4220, OD600 (AID 463173)). Conditions: S. aureus RN4220 wild type/DeltatarO growth, OD600, 18 h, active compounds read low, screened at 18.75 µg/mL (by protocol).
For `Cc1noc(-c2ccc(-c3noc(-c4ccc(C(F)(F)F)cc4)n3)cc2)n1`, the survival was inactive: 123%.
For `CC(C)c1ccc(NC(=O)C(Cc2ccccc2)NS(=O)(=O)c2ccc3c(c2)oc(=O)n3C)cc1` (stereo not drawn), the survival was inactive: 98%.
In the case of `CN(C)CCNC(=O)Cn1nc(N2CCN(c3ccccc3)CC2)ccc1=O`, the survival is reported as inactive: 117%.
`CCOc1ccc(CC(=O)NCc2ccc3c(c2)CCN3C(C)=O)cc1OCC` was tested, and the survival was inactive: 124%.
For `Cc1ccc(C)c(S(=O)(=O)c2nnn3c2nc(N2CCCCC2)c2sccc23)c1`, the survival was inactive: 81%.
With `CC(C)(C)OC(=O)N1CCC(c2c(C(=O)N3CCN(c4ncccn4)CC3)cnn2-c2cccc(F)c2)CC1` the survival was inactive: 134%.
With `COc1ccc(NC(=O)CCc2nnc3n(CC(C)C)c(=O)c4ccccc4n23)cc1OC` the survival was inactive: 92%.
For `COc1ccc(Nc2nc(OC)nc(OC)n2)cc1`, the survival was inactive: 115%.
`COc1ccc(OC)c(NC(=O)Cn2cc(C(=O)c3ccc(Cl)cc3)c(=O)c3cc(OC)ccc32)c1` was tested, and the survival was inactive: 68%.
In the case of `CC(=O)Nc1nonc1-c1nnc(SCc2ccccc2Cl)n1C`, the survival is reported as inactive: 80%.
With `Cc1ccc(O)c(NC(=O)COCc2cc(-c3ccco3)on2)c1` the survival was inactive: 87%.
With `COc1cc2c(cc1OC)n(CC(=O)c1ccc(C)cc1)c(=O)n1nc(CCn3nc(C)cc3C)nc21` the survival was inactive: 143%.
For `COc1ccc(-c2cc(C(=O)Oc3cccc(C)c3C)c3ccccc3n2)cc1`, the survival was active: 12%.
For `COc1ccc(NC(=O)c2ccc3c(c2)CCN3S(=O)(=O)c2ccccc2)cc1`, the survival was inactive: 106%.
With `COC(=O)c1cc(OC)c(OC)cc1NC(=O)c1ccc2c(c1)CCN2S(=O)(=O)c1ccccc1` the survival was inactive: 86%.
`Fc1ccc(-n2ncc3c(N4CCN(Cc5ccccc5)CC4)ncnc32)cc1` was tested, and the survival was inactive: 81%.
`O=C(NCc1ccccn1)c1nn(-c2ccccc2F)nc1CO` was tested, and the survival was inactive: 87%.
For `COc1ccc(CCN2C(=O)CN(C3CCCCCC3)C(=O)C2c2ccc(C)cc2)cc1OC` (stereo not drawn), the survival was inactive: 69%.
For `Fc1ccccc1C1=NC(c2ccc(C(F)(F)F)cc2)=Nc2ccccc2N1`, the survival was inactive: 86%.
`CCOc1ccccc1CN1CCc2nc(Nc3ccccc3)ncc2C1` was tested, and the survival was inactive: 82%.
`COc1cc(CN2CCN(S(=O)(=O)c3ccc(F)cc3)CC2)cc(OC)c1OC` was tested, and the survival was inactive: 77%.
`COc1cccc(CNC(=O)CCNS(=O)(=O)c2ccc3c(c2)CCCC(=O)N3)c1` was tested, and the survival was inactive: 53%.
In the case of `COc1cccc(N=c2oc3cc(O)ccc3cc2C(=O)NCC2CCCO2)c1` (stereo not drawn), the survival is reported as inactive: 113%.
`CCc1ccc(CNC(=O)c2ccc3c(c2)nc2n3CCCCC2)cc1` was tested, and the survival was inactive: 71%.
With `COc1ccc(OC)c(CCNC(=O)CN2C(=O)COc3ccc(S(=O)(=O)N4CCCCCC4)cc32)c1` the survival was inactive: 77%.
For `Cc1ccc(C)c(Cn2cnc3ccccc3c2=O)c1`, the survival was inactive: 54%.
For `COc1cccc(CNC(=O)CSc2n[nH]c(-c3ccccc3Cl)n2)c1`, the survival was inactive: 75%.
In the case of `O=C(CSc1ccc2nnc(CCNS(=O)(=O)c3ccccc3)n2n1)Nc1ccccc1C(F)(F)F`, the survival is reported as inactive: 107%.
`CCc1cccc(NC(=O)CN2c3ccccc3S(=O)(=O)c3ccccc32)c1` was tested, and the survival was inactive: 68%.
In the case of `CC(=O)N1c2ccc(S(=O)(=O)NCCC(=O)Nc3ccc(C)cc3Br)cc2CC1C` (stereo not drawn), the survival is reported as inactive: 91%.
For `CC1=C(C(=O)Nc2ccccc2)C(c2cccs2)n2nc(SCc3ccccc3)nc2N1` (stereo not drawn), the survival was inactive: 94%.
For `O=C(Nc1c2c(nn1-c1ccc(Cl)cc1)CS(=O)(=O)C2)c1cccc(Cl)c1`, the survival was inactive: 70%.
`COc1ccc(OC)c(NC(=O)c2cc3cc4ccc(C)cc4nc3s2)c1` was tested, and the survival was inactive: 87%.
With `Cc1ccc(CNC(=O)Cn2ccn(-c3cc(C)cc(C)c3)c(=O)c2=O)cc1` the survival was inactive: 86%.
In the case of `O=C(c1ccc(F)cc1)n1nc(-c2ccc(Cl)cc2)nc1NCc1ccco1`, the survival is reported as inactive: 76%.
`COc1ccccc1NC(=O)Cn1nc(C)n2cccc2c1=O` was tested, and the survival was inactive: 86%.
With `CCOc1ccc(-c2cc(NC(=O)Nc3ccccc3C(F)(F)F)c(C(=O)OC)s2)cc1` the survival was inactive: 72%.
With `Cc1ccc(N2CC(C(=O)NCc3nnnn3-c3ccc(C)c(C)c3)CC2=O)cc1` (stereo not drawn) the survival was inactive: 73%.
In the case of `COC(=O)c1ccc(Cn2c(SCC(=O)Nc3ccc(F)cc3)nc3ccccc32)cc1`, the survival is reported as inactive: 55%.
In the case of `CCOc1ccc(NC(=O)Cn2c(=O)n(Cc3ccc(C(=O)NCc4ccc5c(c4)OCO5)cc3)c(=O)c3ccccc32)cc1`, the survival is reported as inactive: 98%.
With `Cc1cc(C)cc(NC(=O)CSc2nc(-c3ccccc3)nn2C(=O)c2ccco2)c1` the survival was inactive: 87%.
With `CCCCN(CC)Cc1ccc(CNS(=O)(=O)c2cc3c(cc2Cl)NC(=O)CO3)o1` the survival was active: -3%.
In the case of `CCCCOc1ccc(C(=O)Nc2ccc3c(c2)CCCN3S(=O)(=O)c2ccc(C)cc2)cc1`, the survival is reported as inactive: 78%.
`COc1ccc(C(=O)Nc2ccccc2C(=O)OCc2cc(=O)n3nc(C4CC4)sc3n2)cc1` was tested, and the survival was inactive: 67%.
For `CCOc1ccc(NC(=O)Cn2c(=O)cc(C)c3c(C)nn(-c4ccc(CC)cc4)c32)cc1`, the survival was inactive: 127%.
`CCOC(=O)c1c(C)oc2nc(C)nc(Nc3cc(C)ccc3OC)c12` was tested, and the survival was inactive: 85%.
In the case of `CCOc1ccccc1NC(=O)C1CCCN(S(=O)(=O)c2cn(C)cn2)C1` (stereo not drawn), the survival is reported as inactive: 90%.
For `CCOC(=O)N1CCc2c(sc3c2c(=O)n(-c2ccc(CC)cc2)c(=O)n3Cc2cc(C)ccc2C)C1`, the survival was inactive: 73%.
For `CCc1nnc(NC(=O)CSc2nc3c([nH]c4ccccc43)c(=O)n2-c2ccc(OC)cc2)s1`, the survival was inactive: 128%.
For `CC(C)c1ccc(/C=C(\C#N)c2nc(-c3ccc(O)cc3)cs2)cc1`, the survival was active: 0%.
For `Cc1cc[n+](CC(=O)N2CCCCC2)cc1`, the survival was inactive: 116%.
In the case of `O=C(C1CCCCC1)N(Cc1cccnc1)c1nc2ccc(F)cc2s1`, the survival is reported as inactive: 78%.
In the case of `CCc1cccc(NC(=O)COc2cc(=O)n(CC)c3ccccc23)c1`, the survival is reported as inactive: 120%.
`Cn1ccc2cc(S(=O)(=O)N3CCN(C(=O)Nc4ccccc4F)CC3)ccc21` was tested, and the survival was inactive: 91%.
`CCOC(=O)c1c(Nc2cccc(C)c2)nnc(-c2ccccc2)c1-c1ccccc1` was tested, and the survival was active: 0%.
`Nc1nc(N)c(S(=O)(=O)c2ccccc2)c(Nc2ccc(F)cc2)n1` was tested, and the survival was inactive: 67%.
In the case of `CCOC(=O)c1cccc(NC(=O)c2sc3nc[nH]c(=O)c3c2C)c1`, the survival is reported as inactive: 72%.
For `COc1cc(-c2ccno2)ccc1S(=O)(=O)N1CCN(c2ccc(F)cc2)CC1`, the survival was inactive: 63%.
With `CC(C)C(=O)N1CCN(c2ccc(NC(=O)Cc3ccccc3)cc2Cl)CC1` the survival was inactive: 114%.
`CCc1ccc2occ(CC(=O)N(Cc3ccc(N(C)C)cc3)C3CCS(=O)(=O)C3)c2c1` (stereo not drawn) was tested, and the survival was inactive: 78%.
For `O=C(CSc1nc2ccccc2nc1Cc1ccccc1)N1CCCc2ccccc21`, the survival was inactive: 71%.
In the case of `CCCc1cc(=O)[nH]c(Nc2ccc(O)cc2C)n1`, the survival is reported as inactive: 110%.
For `Cc1cccc(N(C)S(=O)(=O)c2nnc(NC(=O)C3CCCCC3)s2)c1`, the survival was inactive: 88%.
With `CCOC(=O)N1CCC(NC(=O)c2ccc3c(c2)N(Cc2ccc(Cl)cc2)C(=O)c2ccccc2S3=O)CC1` (stereo not drawn) the survival was inactive: 93%.
In the case of `COc1ccc(C)c(N2C(=O)CC(N3CCN(c4ccc(F)cc4)CC3)C2=O)c1` (stereo not drawn), the survival is reported as inactive: 109%.
`CCCCc1nn2c(=O)cc(COC(=O)c3cccs3)nc2s1` was tested, and the survival was inactive: 71%.
`Cc1ccc(Cn2c(=O)n(Cc3ccccc3Cl)c(=O)c3cccnc32)cc1` was tested, and the survival was inactive: 86%.
`CCNc1sc(S(C)(=O)=O)nc1S(=O)(=O)c1ccc(C)cc1` was tested, and the survival was inactive: 119%.
With `Cc1cc(C(=O)N2CCN(c3cc(Cl)ccc3C)CC2)c2c(C)nn(-c3ccccc3)c2n1` the survival was inactive: 136%.
For `Clc1cccc(-n2ncc3c(N4CCCCCC4)ncnc32)c1`, the survival was inactive: 81%.
`Cn1c(=O)n(C)c2cc(N3CCCC3)c(NC(=O)Nc3ccccc3)cc21` was tested, and the survival was inactive: 70%.
With `Cc1cc(S(=O)(=O)NC23CC4CC(CC(C4)C2)C3)ccc1-n1cnnn1` the survival was inactive: 105%.
`Cc1ccc(NC(=O)Cn2ncn3c(cc4ccccc43)c2=O)cc1C` was tested, and the survival was inactive: 78%.
`CCc1ccc(NC(=O)CCNC(=O)Cn2cnc3ccccc3c2=O)cc1` was tested, and the survival was inactive: 70%.
In the case of `Cc1ccc(CNC(=O)c2cccc(Nc3nc4ccccc4n4nnnc34)c2)cc1`, the survival is reported as inactive: 85%.
`Cc1ccc(N2CCN(c3nc4ccccc4c4nnc(C)n34)CC2)c(C)c1` was tested, and the survival was inactive: 95%.
In the case of `COC(=O)c1ccccc1NC(=O)Cn1c(=O)n(CCCCC(=O)NCc2ccc3c(c2)OCO3)c(=O)c2ccccc21`, the survival is reported as inactive: 87%.
With `COc1cc(OC)c(NC(=O)c2c(C)oc3ncnc(N4CCCCC4)c23)cc1Cl` the survival was inactive: 80%.
For `Cn1c(=O)c2c(nc(N3CCOCC3)n2Cc2ccccc2)n(C)c1=O`, the survival was inactive: 75%.
`Cc1cccc(C)c1NC(=O)Cn1cc(S(=O)(=O)Cc2ccc(F)cc2)c2ccccc21` was tested, and the survival was inactive: 71%.
With `CCN(CC)CC(=O)N1CCCC1=O` the survival was inactive: 102%.
With `COC(=O)C1C(c2ccccc2)C(C(=O)N2CCN(C)CC2)C1c1ccccc1` (stereo not drawn) the survival was inactive: 109%.
With `O=C(Cn1nc(-c2ccc(Cl)cc2)c2ccccc2c1=O)NCCN1CCOCC1` the survival was inactive: 108%.
With `Cc1cc(C)cc(NC(=O)Cn2c(=O)n(CC(=O)NCCc3ccccc3)c(=O)c3ccccc32)c1` the survival was inactive: 83%.
`C=CCN1C(=O)C(CC(=O)NCC)SC1=Nc1ccc(S(N)(=O)=O)cc1` (stereo not drawn) was tested, and the survival was inactive: 91%.
For `COc1ccc(C(=O)Nc2nnc(SCc3cc(=O)n4cc(Cl)ccc4n3)s2)cc1`, the survival was inactive: 55%.
For `Cc1ccc(C(=O)c2cn(Cc3c(F)cccc3Cl)c3nc(C)ccc3c2=O)cc1`, the survival was inactive: 70%.
With `Cc1ccc(CNC(=O)CN2C(=O)COc3ccccc32)cc1` the survival was inactive: 83%.
